Experimental data taken from the supplement of paper PMC4967469.
pIC50: −log10 of the molar value. IC50 is the fitted dose that halves viability relative to control wells, and lower means more sensitive; fits outside the tested doses are given as limits. AUC, from the same fit, is the share of area under the viability curve across the 256-fold dose range; the more sensitive the line, the further below 1. For some assays here: Any top dose called inferred is not printed in the source and was worked back from the curve model. For some assays here: Where an entry number is given, a second screen of the drug exists; the two often differ.

Tests used:
Assay in all cases: Viability of human cancer cell lines after 72 h of drug (GDSC screen)
PLX4720 = compound: CCCS(=O)(=O)Nc1ccc(F)c(C(=O)c2c[nH]c3ncc(Cl)cc23)c1F [PLX4720]; conditions: top dose 10 µM
Protocol: (§1)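 Human cancer cell lines in 384-well plates, medium with 10% serum, drug for 72 h over a 256-fold dose range (nine 2-fold or five 4-fold steps up to the top dose). Adherent lines were fixed and stained with the nucleic acid dye Syto60, suspension lines read with resazurin; signal relative to control wells, capped at 0 and 100%. One two-parameter sigmoid per drug and line, fitted in a mixed model over all curves with the slope shared within a line.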

Pyrimethamine = compound: CCc1nc(N)nc(N)c1-c1ccc(Cl)cc1 [Pyrimethamine]; conditions: top dose 20 µM; top dose inferred
Protocol: as §1

PHA-793887 = compound: CC(C)CC(=O)Nc1n[nH]c2c1CN(C(=O)C1CCN(C)CC1)C2(C)C [PHA-793887]; conditions: top dose 10.24 µM
Protocol: as §1

Imatinib = compound: Cc1ccc(NC(=O)c2ccc(CN3CCN(C)CC3)cc2)cc1Nc1nccc(-c2cccnc2)n1 [Imatinib]; conditions: top dose 2 µM
Protocol: as §1

Y-39983 = compound: C[C@@H](N)c1ccc(C(=O)Nc2ccnc3[nH]ccc23)cc1 [Y-39983]; conditions: top dose 20 µM; top dose inferred
Protocol: as §1

Epothilone B = compound: C/C(=C\c1csc(C)n1)[C@@H]1C[C@@H]2O[C@]2(C)CCC[C@H](C)[C@H](O)[C@@H](C)C(=O)C(C)(C)[C@@H](O)CC(=O)O1 [Epothilone B]; conditions: top dose 0.032 µM; top dose inferred
Protocol: as §1

TPCA-1 = compound: NC(=O)Nc1sc(-c2ccc(F)cc2)cc1C(N)=O [TPCA-1]; conditions: top dose 20 µM
Protocol: as §1

AZD-0530 = compound: CN1CCN(CCOc2cc(OC3CCOCC3)c3c(Nc4c(Cl)ccc5c4OCO5)ncnc3c2)CC1 [AZD-0530]; conditions: top dose 2 µM
Protocol: as §1

[1] = screen: GDSC drug entry 1371, top dose inferred

| Cell Line | AUC (PLX4720; [1]) | pIC50 (PLX4720; [1]) | AUC (Pyrimethamine) | pIC50 (Pyrimethamine) | AUC (PHA-793887) | pIC50 (PHA-793887) | AUC (Imatinib) | pIC50 (Imatinib) | AUC (Y-39983) | pIC50 (Y-39983) | AUC (Epothilone B) | pIC50 (Epothilone B) | AUC (TPCA-1) | pIC50 (TPCA-1) | AUC (AZD-0530) | pIC50 (AZD-0530) | AUC (PLX4720; screen: GDSC drug entry 1036) | pIC50 (PLX4720; screen: GDSC drug entry 1036) |
| --- | --- | --- | --- | --- | --- | --- | --- | --- | --- | --- | --- | --- | --- | --- | --- | --- | --- | --- |
| LB2241-RCC (kidney, adherent) | 0.948 | < 5.00 | 0.968 | < 4.70 | 0.984 | < 4.99 | 0.875 | < 5.70 | 0.975 | < 4.70 | 0.62 | 8.35 | 0.955 | < 4.70 | 0.982 | < 5.70 |  |  |
| LB2518-MEL (melanoma, adherent) | 0.986 | < 5.00 | 0.944 | < 4.70 | 0.987 | < 4.99 | 0.954 | < 5.70 | 0.971 | < 4.70 | 0.792 | 7.82 | 0.919 | < 4.70 | 0.959 | < 5.70 | 0.932 | < 5.00 |
| LC4-1 (lymphoblastic leukaemia, suspension) | 0.971 | < 5.00 | 0.889 | < 4.70 | 0.355 | 6.62 | 0.906 | < 5.70 | 0.937 | < 4.70 | 0.772 | 7.86 | 0.72 | 5.25 | 0.896 | < 5.70 | 0.96 | < 5.00 |
| LOXIMVI (melanoma, semi-adherent) | 0.65 | 5.81 | 0.834 | 4.95 | 0.879 | 5.07 | 0.984 | < 5.70 | 0.986 | < 4.70 | 0.967 | < 7.49 | 0.868 | 4.82 | 0.962 | < 5.70 | 0.742 | 5.55 |
| LU-65 (large cell lung carcinoma, suspension) | 0.963 | < 5.00 | 0.837 | 4.77 | 0.818 | 5.14 | 0.98 | < 5.70 | 0.936 | < 4.70 | 0.822 | 7.63 | 0.84 | 4.75 | 0.975 | < 5.70 | 0.982 | < 5.00 |
| LU-139 (small cell lung carcinoma, suspension) | 0.979 | < 5.00 | 0.783 |  | 0.586 | 5.93 | 0.98 | < 5.70 | 0.888 | < 4.70 | 0.881 | < 7.49 | 0.841 | < 4.70 | 0.98 | < 5.70 | 0.858 | < 5.00 |
| MFH-ino (soft tissue, adherent) | 0.975 | < 5.00 | 0.969 | < 4.70 | 0.929 | < 4.99 | 0.98 | < 5.70 | 0.969 | < 4.70 | 0.249 | 9.49 | 0.926 | < 4.70 | 0.833 | 5.79 | 0.983 | < 5.00 |
| MHH-NB-11 (neuroblastoma, adherent) |  |  | 0.838 | 4.81 | 0.846 | 5.06 | 0.98 | < 5.70 | 0.771 | 5.08 | 0.828 | 7.65 | 0.642 | 5.49 | 0.983 | < 5.70 | 0.985 | < 5.00 |
| MPP-89 (mesothelioma, adherent) | 0.966 | < 5.00 | 0.975 | < 4.70 | 0.981 | < 4.99 | 0.924 | < 5.70 | 0.977 | < 4.70 | 0.685 | 8.11 | 0.929 | < 4.70 | 0.921 | < 5.70 | 0.972 | < 5.00 |
| MRK-nu-1 (breast, suspension) | 0.989 | < 5.00 | 0.978 | < 4.70 | 0.929 | < 4.99 | 0.97 | < 5.70 | 0.946 | < 4.70 | 0.377 | 9.02 | 0.923 | < 4.70 | 0.97 | < 5.70 | 0.99 | < 5.00 |
| MS-1 (small cell lung carcinoma, suspension) | 0.99 | < 5.00 | 0.983 | < 4.70 | 0.755 | 5.50 | 0.99 | < 5.70 | 0.988 | < 4.70 | 0.746 | 8.04 | 0.874 | 4.80 | 0.99 | < 5.70 | 0.973 | < 5.00 |
| MY-M12 (leukaemia, suspension) |  |  | 0.777 | 5.04 | 0.616 | 5.85 | 0.485 | 6.95 | 0.828 | 4.84 | 0.698 | 8.11 | 0.713 | 5.26 | 0.649 | 6.47 | 0.944 | < 5.00 |
| MZ2-MEL (melanoma, adherent) | 0.599 | 5.91 | 0.978 | < 4.70 | 0.663 | 5.71 | 0.98 | < 5.70 | 0.973 | < 4.70 | 0.542 | 8.58 | 0.773 | 5.04 | 0.979 | < 5.70 | 0.735 | 5.48 |
| NAMALWA (Burkitt lymphoma, suspension) | 0.987 | < 5.00 | 0.847 | 4.95 | 0.371 | 6.52 | 0.99 | < 5.70 | 0.817 | 5.05 | 0.694 | 8.20 | 0.408 | 6.14 | 0.941 | < 5.70 | 0.974 | < 5.00 |
| NB1 (neuroblastoma, semi-adherent) | 0.982 | < 5.00 | 0.864 | < 4.70 | 0.945 | < 4.99 | 0.984 | < 5.70 | 0.883 | < 4.70 | 0.776 | 7.85 | 0.887 | < 4.70 | 0.887 | < 5.70 | 0.982 | < 5.00 |
